Source: publication PMC13248759
These are yes or no findings as the source states them, for the method shown. Binding seen in cells or lysates may run through a third protein. Some binding calls cover weakened binding; strength is not graded here. For part of these data: Sequences can lack the tags named with a protein.

B1: NUMB, endogenous (protein, UniProt P49757-1 1-651)
chain: MNKLRQSFRRKKDVYVPEASRPHQWQTDEEGVRTGKCSFPVKYLGHVEVDESRGMHICEDAVKRLKAERKFFKGFFGKTGKKAVKAVLWVSADGLRVVDEKTKDLIVDQTIEKVSFCAPDRNFDRAFSYICRDGTTRRWICHCFMAVKDTGERLSHAVGCAFAACLERKQKREKECGVTATFDASRTTFTREGSFRVTTATEQAEREEIMKQMQDAKKAETDKIVVGSSVAPGNTAPSPSSPTSPTSDATTSLEMNNPHAIPRRHAPIEQLARQGSFRGFPALSQKMSPFKRQLSLRINELPSTMQRKTDFPIKNAVPEVEGEAESISSLCSQITNAFSTPEDPFSSAPMTKPVTVVAPQSPTFQANGTDSAFHVLAKPAHTALAPVAMPVRETNPWAHAPDAANKEIAATCSGTEWGQSSGAASPGLFQAGHRRTPSEADRWLEEVSKSVRAQQPQASAAPLQPVLQPPPPTAISQPASPFQGNAFLTSQPVPVGVVPALQPAFVPAQSYPVANGMPYPAPNVPVVGITPSQMVANVFGTAGHPQAAHPHQSPSLVRQQTFPHYEASSATTSPFFKPPAQHLNGSAAFNGVDDGRLASADRHTEVPTGTCPVDPFEAQWAALENKSKQRTNPSPTNPFSSDLQKTFEIEL
B2: SNX9-Y177A mutant (protein, UniProt Q9Y5X1 1-595)
chain: MATKARVMYDFAAEPGNNELTVNEGEIITITNPDVGGGWLEGRNIKGERGLVPTDYVEILPSDGKDQFSCGNSVADQAFLDSLSASTAQASSSAASNNHQVGSGNDPWSAWSASKSGNWESSEGWGAQPEGAGAQRNTNTPNNWDTAFGHPQAYQGPATGDDDDWDEDWDGPKSSSAFKDSESADAGGAQRGNSRASSSSMKIPLNKFPGFAKPGTEQYLLAKQLAKPKEKIPIIVGDYGPMWVYPTSTFDCVVADPRKGSKMYGLKSYIEYQLTPTNTNRSVNHRYKHFDWLYERLLVKFGSAIPIPSLPDKQVTGRFEEEFIKMRMERLQAWMTRMCRHPVISESEVFQQFLNFRDEKEWKTGKRKAERDELAGVMIFSTMEPEAPDLDLVEIEQKCEAVGKFTKAMDDGVKELLTVGQEHWKRCTGPLPKEYQKIGKALQSLATVFSSSGYQGETDLNDAITEAGKTYEEIASLVAEQPKKDLHFLMECNHEYKGFLGCFPDIIGTHKGAIEKVKESDKLVATSKITLQDKQNMVKRVSIMSYALQAEMNHFHSNRIYDYNSVIRLYLEQQVQFYETIAEKLRQALSRFPVM
B3: EPS15, endogenous (protein, UniProt P42566 1-896)
chain: MAAAAQLSLTQLSSGNPVYEKYYRQVDTGNTGRVLASDAAAFLKKSGLPDLILGKIWDLADTDGKGILNKQEFFVALRLVACAQNGLEVSLSSLNLAVPPPRFHDTSSPLLISGTSAAELPWAVKPEDKAKYDAIFDSLSPVNGFLSGDKVKPVLLNSKLPVDILGRVWELSDIDHDGMLDRDEFAVAMFLVYCALEKEPVPMSLPPALVPPSKRKTWVVSPAEKAKYDEIFLKTDKDMDGFVSGLEVREIFLKTGLPSTLLAHIWSLCDTKDCGKLSKDQFALAFHLISQKLIKGIDPPHVLTPEMIPPSDRASLQKNIIGSSPVADFSAIKELDTLNNEIVDLQREKNNVEQDLKEKEDTIKQRTSEVQDLQDEVQRENTNLQKLQAQKQQVQELLDELDEQKAQLEEQLKEVRKKCAEEAQLISSLKAELTSQESQISTYEEELAKAREELSRLQQETAELEESVESGKAQLEPLQQHLQDSQQEISSMQMKLMEMKDLENHNSQLNWCSSPHSILVNGATDYCSLSTSSSETANLNEHVEGQSNLESEPIHQESPARSSPELLPSGVTDENEVTTAVTEKVCSELDNNRHSKEEDPFNVDSSSLTGPVADTNLDFFQSDPFVGSDPFKDDPFGKIDPFGGDPFKGSDPFASDCFFRQSTDPFATSSTDPFSAANNSSITSVETLKHNDPFAPGGTVVAASDSATDPFASVFGNESFGGGFADFSTLSKVNNEDPFRSATSSSVSNVVITKNVFEETSVKSEDEPPALPPKIGTPTRPCPLPPGKRSINKLDSPDPFKLNDPFQPFPGNDSPKEKDPEIFCDPFTSATTTTNKEADPSNFANFSAYPSEEDMIEWAKRESEREEEQRLARLNQQEQEDLELAIALSKSEISEA
B4: SNX18, endogenous (protein, UniProt Q96RF0 1-628)
chain: MALRARALYDFRSENPGEISLREHEVLSLCSEQDIEGWLEGVNSRGDRGLFPASYVQVIRAPEPGPAGDGGPGAPARYANVPPGGFEPLPVAPPASFKPPPDAFQALLQPQQAPPPSTFQPPGAGFPYGGGALQPSPQQLYGGYQASQGSDDDWDDEWDDSSTVADEPGALGSGAYPDLDGSSSAGVGAAGRYRLSTRSDLSLGSRGGSVPPQHHPSGPKSSATVSRNLNRFSTFVKSGGEAFVLGEASGFVKDGDKLCVVLGPYGPEWQENPYPFQCTIDDPTKQTKFKGMKSYISYKLVPTHTQVPVHRRYKHFDWLYARLAEKFPVISVPHLPEKQATGRFEEDFISKRRKGLIWWMNHMASHPVLAQCDVFQHFLTCPSSTDEKAWKQGKRKAEKDEMVGANFFLTLSTPPAAALDLQEVESKIDGFKCFTKKMDDSALQLNHTANEFARKQVTGFKKEYQKVGQSFRGLSQAFELDQQAFSVGLNQAIAFTGDAYDAIGELFAEQPRQDLDPVMDLLALYQGHLANFPDIIHVQKGKAWPLEQVIWSVLCRLKGATLTAVPLWVSESYSTGEEASRDVDAWVFSLECKLDCSTGSFLLEYLALGNEYSFSKVQRVPLMTVLSF
B5: SNX33, endogenous (protein, UniProt Q8WV41 1-574)
chain: MALKGRALYDFHSENKEEISIQQDEDLVIFSETSLDGWLQGQNSRGETGLFPASYVEIVRSGISTNHADYSSSPAGSPGAQVSLYNSPSVASPARSGGGSGFLSNQGSFEEDDDDDWDDWDDGCTVVEEPRAGGLGTNGHPPLNLSYPGAYPSQHMAFRPKPPLERQDSLASAKRGSVVGRNLNRFSCFVRSGVEAFILGDVPMMAKIAETYSIEMGPRGPQWKANPHPFACSVEDPTKQTKFKGIKSYISYKLTPTHAASPVYRRYKHFDWLYNRLLHKFTVISVPHLPEKQATGRFEEDFIEKRKRRLILWMDHMTSHPVLSQYEGFQHFLSCLDDKQWKMGKRRAEKDEMVGASFLLTFQIPTEHQDLQDVEDRVDTFKAFSKKMDDSVLQLSTVASELVRKHVGGFRKEFQKLGSAFQAISHSFQMDPPFCSEALNSAISHTGRTYEAIGEMFAEQPKNDLFQMLDTLSLYQGLLSNFPDIIHLQKGAFAKVKESQRMSDEGRMVQDEADGIRRRCRVVGFALQAEMNHFHQRRELDFKHMMQNYLRQQILFYQRVGQQLEKTLRMYDNL

Columns and labels:
SNX9-FLAG = SNX9-FLAG (UniProt Q9Y5X1); assay: co-IP; lysates of extracellular vesicles purified by ultracentrifugation from the conditioned medium of SNX9-FLAG expressing cells, anti-FLAG magnetic agarose beads, immunoblot; FLAG peptide as negative control
[1] = molecular target: sorting nexin 9 (SNX9), endogenous (human (endogenous in HEK-293, MCF10A, HBL-100)) (UniProt Q9Y5X1); assay: co-IP; endogenous proteins from HEK-293 lysate in JS buffer, anti-NUMB (AB21) or anti-SNX9 antibody on Protein A/G magnetic beads, 2 h at 4 C, immunoblot; in some panels SNX9 or NUMB siRNA
NUMB-1-FLAG (human) = molecular target: T1, NUMB-1-FLAG (human) (UniProt P49757); assay: co-IP; lysates of transfected HEK-293 cells in JS buffer (50 mM HEPES pH 7.5, 150 mM NaCl, 1% Triton X-100), anti-FLAG or anti-HA beads, 2 h at 4 C, immunoblot; in some panels SNX9 siRNA or graded amounts of SNX9-HA
T1 sequence: B1 chain

binding (SNX9-FLAG)	binding [1]	binding (NUMB-1-FLAG (human))	Binder
binds	binds	–	B1
–	–	binds	B2
–	–	binds	B3
–	–	no binding	B4
–	–	no binding	B5
